# Assay results taken from PubChem BioAssay AID624417 (National Center for Advancing Translational Sciences (NCATS), 2012).
# The campaign covered roughly 410,000 compounds. About 6,400 (1.6%) were called active. Inconclusive means that the source gave no clear call. Such entries were picked first, then a sample of the others. Calls follow the shape of the dose curve; as a rule, active = well fitted inhibition curve with a large enough effect; inconclusive = small, poorly fitted or top-dose-only effect; inactive = no such curve, though single readings can be large or run the other way. Potencies of inconclusive entries are left out as doubtful fits.
# Target: Glucagon-like peptide 1 receptor (Homo sapiens) (UniProt P43220)
# UniProt P43220, sequence (P43220 whole entry, looked up): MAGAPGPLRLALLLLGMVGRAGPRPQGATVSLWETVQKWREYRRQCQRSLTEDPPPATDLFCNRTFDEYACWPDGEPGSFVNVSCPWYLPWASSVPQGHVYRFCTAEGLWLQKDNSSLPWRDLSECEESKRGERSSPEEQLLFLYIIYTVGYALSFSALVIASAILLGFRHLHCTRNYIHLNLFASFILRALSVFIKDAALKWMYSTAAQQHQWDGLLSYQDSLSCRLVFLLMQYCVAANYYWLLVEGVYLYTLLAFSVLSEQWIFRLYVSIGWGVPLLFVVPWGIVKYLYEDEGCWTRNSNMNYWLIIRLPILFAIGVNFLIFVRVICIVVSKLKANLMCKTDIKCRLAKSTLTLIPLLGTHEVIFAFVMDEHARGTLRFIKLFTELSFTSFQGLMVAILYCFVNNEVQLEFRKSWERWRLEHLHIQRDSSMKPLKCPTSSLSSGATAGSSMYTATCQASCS
# Test: qHTS of GLP-1 Receptor Inverse Agonists (Inhibition Mode); also: nearly all actives have a fitted effect of over 55% in size
# Details: HEK293 GLP-1R CRE-luciferase, luminescence, 24 h, GLP-1R form is constitutively active; series mostly up to 38.3 µM
# Outline: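 qHTS in 1536-well format: reporter HEK293 cells expressing constitutive GLP-1R activity in DMEM + 10% Nu serum, 24 hr with compounds at 37 deg C, luminescence read after 12 min with detection reagent.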
# Potency is read from the fitted curve at half-maximal effect; tags tell the direction and shape of the fitted curve.
row,SMILES,Potency
1,COc1cccc(N2CCN(C(C)C(=O)NC34CC5CC(CC(C5)C3)C4)CC2)c1 (centres undefined),"inconclusive [inhibitor, single point]"
2,CCCCOC(=O)c1ccc(NC(=O)c2ccc3c(c2)CCN3S(=O)(=O)c2ccccc2)cc1,"inconclusive [inhibitor, partial curve]"
3,O=S(=O)(c1cnc[nH]1)N1CCN(C(c2ccc(F)cc2)c2ccc(F)cc2)CC1,"inconclusive [inhibitor, single point]"
4,O=C1/C(=C/c2ccco2)SC(=S)N1CC1CCCO1 (centres undefined),inactive
5,COc1ccc2c(c1)C(=O)CC(c1ccccc1F)O2 (centres undefined),"inconclusive [inhibitor, single point]"
6,CCC(C(=O)Nc1ncc(C)s1)c1ccccc1 (centres undefined),"inconclusive [inhibitor, partial curve, poor fit]"
7,CCc1cccc2c(SC(C)C(=O)NCC3CCCO3)nc(-c3ccccc3)nc12 (centres undefined),inactive
8,O=C(NCc1ccc(F)cc1)c1cc(C2CCCCN2C(=O)c2ccc(Cl)cc2)on1 (centres undefined),"inconclusive [inhibitor, partial curve, poor fit]"
9,CCOC(=O)c1nc2sc3c(c2c(=O)n1C(C)C(=O)OCC)CCCC3 (centres undefined),active: 1.26 µM
10,CC(C)Cn1c(N)c(C(=O)COC(=O)c2ccc(Cl)cc2)c(=O)n(C)c1=O,"inconclusive [inhibitor, single point]"
11,C[C@@H]1CN([C@H](C)CO)C(=O)c2c(c3ccccc3n2C)-c2ccccc2CO[C@H]1CN(C)C(=O)Nc1ccccc1,"inconclusive [inhibitor, single point]"
12,Cc1ccc(NC2CCCN(C(=O)c3nonc3C)C2)cc1C (centres undefined),"inconclusive [inhibitor, single point]"
13,CCC(=O)N1CCN(c2ccc(NC(=O)COc3ccc(C)cc3C)cc2)CC1,"inconclusive [inhibitor, single point]"
14,Cc1nn(Cc2ccccc2Cl)c(C)c1C(=O)NCc1ccco1,"inconclusive [inhibitor, single point]"
15,CCOC(=O)c1[nH]c(C)c(CCC(=O)N2CCN(c3cc(Cl)ccc3C)CC2)c1C,"inconclusive [inhibitor, single point]"
16,CCc1ccc(-n2c(Cc3ccccc3)n[nH]c2=S)cc1,"inconclusive [inhibitor, partial curve, poor fit]"
17,CCc1ccc(NC(=O)C(C)OC(=O)CCN2C(=O)C3CC=CCC3C2=O)cc1 (centres undefined),"inconclusive [inhibitor, single point]"
18,CN(Cc1ccc(Cl)c(Cl)c1)C(C(=O)NCc1ccccc1)c1ccc(C(F)(F)F)cc1 (centres undefined),"inconclusive [inhibitor, single point]"
19,COc1ccc2c(c1)/C(=C/c1cc(OC)c(OC)c(OC)c1)C(=O)N2,"inconclusive [inhibitor, full curve, poor fit]"
20,CCNc1nc(OCC)nc(N2CCC(Cc3ccccc3)CC2)n1,"inconclusive [inhibitor, partial curve, poor fit]"

row,SMILES,Potency
1,CCOc1ccccc1N1CCN(C(=O)c2c(-c3c(F)cccc3Cl)noc2C)CC1,"inconclusive [inhibitor, partial curve, poor fit]"
2,O=C(NNC1=C(C(=O)C(F)(F)F)CCC1)c1ccc(Cl)cc1,inactive
3,O=C(c1cc(-c2ccccc2)nc2ccccc12)N1CCCc2ccccc21,"inconclusive [inhibitor, single point]"
4,COc1ccc(/C=N/NC(=O)Cc2csc(Nc3cccc(C(F)(F)F)c3)n2)c(OC)c1,"inconclusive [inhibitor, partial curve, poor fit]"
5,COc1ccc(C2CC(=O)c3cnc(Nc4cc(C)cc(C)c4)nc3C2)cc1 (centres undefined),inactive
6,Cc1c(S(=O)(=O)NCCc2ccccc2)c(=O)n(C)c(=O)n1C,inactive
7,COCc1[nH]nc2c1C(c1ccc(OC)c(OC)c1)C(C#N)=C(N)O2 (centres undefined),inactive
8,O=C(NCC1COc2ccccc2O1)c1ccc(NC(=O)C(c2ccccc2)c2ccccc2)cc1 (centres undefined),"inconclusive [inhibitor, partial curve, poor fit]"
9,CCOC(=O)c1c(C)[nH]c(C)c1S(=O)(=O)N1CCCC(C(=O)N2CCN(c3ccc(Cl)cc3)CC2)C1 (centres undefined),"inconclusive [inhibitor, single point]"
10,CCOc1cccc(/C=C2\NC(=S)N(c3ccccc3)C2=O)c1O,"inconclusive [inhibitor, single point]"
11,CCC(C)(C)NC(=O)c1cc(S(=O)(=O)N2CCc3ccccc32)cn1C,"inconclusive [inhibitor, partial curve, poor fit]"
12,CC(Oc1ccc2ccccc2c1)C(=O)NNC(=O)Nc1ccccc1 (centres undefined),"inconclusive [inhibitor, partial curve, poor fit]"
13,CCOC(=O)c1cccc(NC(=O)Cc2ccc(NC(=O)N3CCCCc4ccccc43)cc2)c1,"inconclusive [inhibitor, partial curve, poor fit]"
14,C=CCSc1ccccc1C(=O)Nc1ncn[nH]1,inactive
15,Cc1cc(C)c(S(=O)(=O)NCC(c2ccco2)N2CCc3ccccc3C2)c(C)c1 (centres undefined),"inconclusive [inhibitor, partial curve, poor fit]"
16,O=C(COc1ccc(Br)cc1)N(Cc1nnc(-c2ccccc2Cl)o1)C1CC1,"inconclusive [inhibitor, partial curve, poor fit]"
17,O=C(CCCOc1ccc(Cl)cc1Cl)NCCc1ccccn1,"inconclusive [inhibitor, partial curve, poor fit]"
18,O=C(CCC1CCCC1)NCCS(=O)(=O)N1CCN(c2ccccc2F)CC1,"inconclusive [inhibitor, partial curve, poor fit]"
19,O=C(NCC(c1cccnc1)N1CCN(c2ccccc2)CC1)OCc1ccccc1 (centres undefined),"inconclusive [inhibitor, partial curve, poor fit]"
